According to the supplement of paper PMC8674133:
Residue numbers refer to the chain shown, from its start. Recombinant human monoclonal antibodies (heavy:light variable regions). ELISA EC50 on the named antigen, from 10 µg/ml down; IC50 / IC90 against spike pseudovirus on 293T-ACE2 cells, 48 h; lower = stronger. Calls: IC50 above 1,000 ng/ml = non-neutralizing; EC50 above 2,000 ng/ml = non-binder. The source prints 1000 for neutralization that was not reached; it is given as >1000 ng/ml. A few antibodies were first reported in earlier work of the same group.

Experiments:
[1] = target: SARS-CoV-2 Wuhan-Hu-1 spike pseudovirus; test: pseudovirus neutralization IC50; higher = weaker neutralization
Description: (§1)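 Single-round luciferase reporter pseudovirus mixed with antibody dilutions and put on 293T-ACE2 cells for 48 h; signal relative to no-antibody wells, four-parameter fit.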

[2] = target: SARS-CoV-2 Wuhan-Hu-1 spike pseudovirus; test: pseudovirus neutralization IC90; higher = weaker neutralization
Description: as §1

[3] = target: SARS-CoV-2 Wuhan-Hu-1 spike receptor-binding domain; test: ELISA binding EC50; higher = weaker binding; ELISA of recombinant human antibody on coated antigen, from 10 µg/ml in fourfold dilutions; four-parameter fit.

B1: C2165 (protein)
chain 1: EVQLVESGGGLVKPGGSLRLSCAASGFTFSTYSMNWVRQAPGKGLEWVSSITGSSSLIYYADSVKGRFTVSRDNAKNSLYLQMNGLRVEDTAVYYCAREGFYCSGGGCRWFDPWGQGTLVTVSS
chain 2: EIVLTQSPATLSLSPGESATLSCRASESVSSYLAWYQQKPGQAPRLLIYDASNRATGIPARFSGSGSGTDFTLTISSLEPEDFAVYYCQHRSNWPPTFGGGTKVEIK
Q: B1 was tested. Which “pseudovirus neutralization IC50” value [1] did it give?
A: > 1000 ng/mL

Q: What about the “pseudovirus neutralization IC90” value [2] of the same binder?
A: > 1000 ng/mL

Q: What about the “ELISA binding EC50” value [3] of the same binder?
A: 452 ng/mL

B2: C2219 (protein)
chain 1: QVQLQESGPGLVRPSETLSLTCTVSGGSVFSTYSWLNWIRQPPGKGLEWIGHMYHTGTANYNPSLESRVTMSLDRSKNQMSLSLRSVTAADTAVYYCASGRDESKTGYWGQGTLVTVSS
chain 2: DIVMTQSPDSLSVSLGERATFNCKSSQTVLYSPNNKNYLAWFQQKPGQPPKLLIYWASLRDSGVPDRFSGSGSATDFTLTISSLQAEDVAVYFCQQYHSPPFTFGQGTKLEIK
Q: For B2, which “pseudovirus neutralization IC50” value [1] is on record?
A: 28.8 ng/mL

Q: What about the “pseudovirus neutralization IC90” value [2] of the same binder?
A: 262 ng/mL

Q: What about the “ELISA binding EC50” value [3] of the same binder?
A: 2 ng/mL

B3: C2220 (protein)
chain 1: EVQLVESGGGLIQPGGSLRLSCVASGFTVSSNYMSWVRQAPGKGLEWVSVIYPGGSTFYADSVKGRFTISRDNSKNTLYLQMNSLRAEDTAVYYCAREYGDWEWGQGTLVTVSS
chain 2: IRMTQSPSSLSASVGDRVTITCQASQDIRNYLNWYQQKPGKAPKLLIYDASNLETGVPSRFSGSGSGTDFTFTISSLQPEDIATYYCQQYDNLPRTFGQGTKLEIK
Q: What does the source list for B3?
A: pseudovirus neutralization IC50 [1]: 23.9 ng/mL; pseudovirus neutralization IC90 [2]: 182 ng/mL; ELISA binding EC50 [3]: 2.09 ng/mL

B4: C2228 (protein)
chain 1: QVQLVQSGAEVRKPGASVKVSCKASGFTFISFAIHWVRQAPGQSLEWMGWINAGDGNTKYSQKFQGRVTITRHTSASTAYIELSSLRSEDTAVYYCARDFGGRESRGGAFDIWGQGTMVTVSS
chain 2: QSVLTQPPSVSEAPRQRVTISCSGSNSNIGNNVVNWYQQLPGKAPKLLIYYDDLLPSGVSDRFSGSKSGTSVSLVISGLQSEDEADYYCAAWDDSLNGYVFGTGTKVTVL
Q: What does the source list for B4?
A: pseudovirus neutralization IC50 [1]: 111 ng/mL; pseudovirus neutralization IC90 [2]: 838 ng/mL; ELISA binding EC50 [3]: 1.98 ng/mL

B5: C2230 (protein)
chain 1: VQLVESGGGVVQPGRSLRLSCAASGFTFSSYGMHWVRQAPGKGLEWVAVISYDGSNKYYADSVKGRFTISRDNSKNTLYLQMNSLRAEDTAVYYCAKNFYSYGYQGYYFDYWGQGTLVTVSS
chain 2: IRMTQSPSSLSASVGDRVTITCQASQDISNYLNWYQQKPGKAPKLLIYDASNLETGVPSRFSGSGSGTDFTFTISSLQPEDIATYYCQQYDNLVTFGGGTKVEIK
Q: Which results are given for B5?
A: pseudovirus neutralization IC50 [1]: > 1000 ng/mL; pseudovirus neutralization IC90 [2]: > 1000 ng/mL; ELISA binding EC50 [3]: 2.28 ng/mL

B6: C2231 (protein)
chain 1: EVQLVESGGGLVQPGGSLRLSCAASGFTFSSYWMSWVRQAPGKGLEWVANIKQDGSEKYYVDSVKGRFTISRDNAKNSLYLQMNSLRAEDTAVYYCARDRWLRGDMDVWGKGTTVTVSS
chain 2: NFMLTQPHSVSESPGKTVTISCTGSSGSIASNYVQWYQQRPGSAPTTVIYEDNQRPSGVPDRFSGSIDSSSNSASLTISGLKTEDEADYYCQSYDSSSRVFGGGTKLTVL
Q: What does the source list for B6?
A: pseudovirus neutralization IC50 [1]: > 1000 ng/mL; pseudovirus neutralization IC90 [2]: > 1000 ng/mL; ELISA binding EC50 [3]: 2.93 ng/mL

B7: C2232 (protein)
chain 1: EVQLVESGGGLIQPGGSLRLSCAASGLTVSSNYMSWVRQAPGKGLEWVSIIYSGGSTFYADSVKGRFTISRDNSKNTLYLQMNSLRAEDTAVYYCARDLQQLGGMDVWGQGTTVTVSS
chain 2: B3 chain 2 with R29S, Q88H, R95I, K102R
Q: With B7 as the binder, how does the “pseudovirus neutralization IC50” value [1] read?
A: 9.83 ng/mL

Q: And the “pseudovirus neutralization IC90” value [2]?
A: 87.6 ng/mL

Q: And the “ELISA binding EC50” value [3]?
A: 1.71 ng/mL

B8: C2233 (protein)
chain 1: EVQLVESGGGLIQPGGSLRLSCAASGFIVSSNYMNWVRQAPGKGLEWVSVIYSGGSTFYADSVKGRFTISRDNSKNTLYFQMNSLRAEDTAVYYCARFGGYELGGVDVWGQGTTVTVSS
chain 2: B3 chain 2 with R95I, K102R
Q: How did the “pseudovirus neutralization IC50” value [1] turn out when B8 was run?
A: 9.85 ng/mL

Q: And the “pseudovirus neutralization IC90” value [2]?
A: 64.8 ng/mL

Q: And the “ELISA binding EC50” value [3]?
A: 1.83 ng/mL
